Drawing on paper PMC12820563, this text covers binding signal (RPM ratio (pull-down/input)) for 31 sequences.

The other results are listed elsewhere or left out. The list includes weakly bound sequences.

The assay concerns the target T1, MBP-FoxP3dN (UniProt Q99JB6).
T1 sequence: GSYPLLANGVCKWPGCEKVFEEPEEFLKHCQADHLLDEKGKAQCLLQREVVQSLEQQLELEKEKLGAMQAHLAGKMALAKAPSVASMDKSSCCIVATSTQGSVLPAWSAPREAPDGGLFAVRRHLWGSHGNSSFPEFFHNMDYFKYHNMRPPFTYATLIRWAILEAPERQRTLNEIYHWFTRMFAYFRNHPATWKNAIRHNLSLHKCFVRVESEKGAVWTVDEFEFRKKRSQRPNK
Kind of assay: PD-seq (MBP pull-down with sequencing). The conditions noted are these: 20 mM Tris-HCl pH 7.5, 100 mM NaCl, 1.5 mM MgCl2, 0.4 uM protein, 0.1 uM dsDNA library, 30 min, room temperature, amylose pull-down; high values mean tight binding; double strand, one strand shown.
For “GATGATTGTTCTCCCAGCTGATGAATTTTTTACTTCGAGTAAACAAATTTTCCTAATCTTTCTGTTCAAGCGCCATCTAC”, the binding signal (RPM ratio (pull-down/input)) came out at 0.261.
Take “GATGATTGTTCTCCCAGCTGATGAATTAGGCGGCTCGAGTAAACAAATTTTCCTAATCTTTCTGTTCAAGCGCCATCTAC”: the binding signal (RPM ratio (pull-down/input)) stood at 0.691.
On to “GATGATTGTTCTCCCAGCTGATGAATTCTGGGATTCGAGTAAACAAATTTTCCTAATCTTTCTGTTCAAGCGCCATCTAC”, for which the binding signal (RPM ratio (pull-down/input)) was 0.376.
Turning to “GATGATTGTTCTCCCAGCTGATGAATTCCGTCGGTCGAGTAAACAAATTTTCCTAATCTTTCTGTTCAAGCGCCATCTAC”, the binding signal (RPM ratio (pull-down/input)) was determined as 0.291.
The same measure for “GATGATTGTTCTCCCAGCTGATGAATTATCGGAGTCGAGTAAACAAATTTTCCTAATCTTTCTGTTCAAGCGCCATCTAC”: 0.245; for “GATGATTGTTCTCCCAGCTGATGAATTATTAGGGTCGAGTAAACAAATTTTCCTAATCTTTCTGTTCAAGCGCCATCTAC”: 0.308.
As to “GATGATTGTTCTCCCAGCTGATGAATTCGGAAGTTCGAGTAAACAAATTTTCCTAATCTTTCTGTTCAAGCGCCATCTAC”, the binding signal (RPM ratio (pull-down/input)) was determined as 0.245.
The same measure for “GATGATTGTTCTCCCAGCTGATGAATTATATGAGTCGAGTAAACAAATTTTCCTAATCTTTCTGTTCAAGCGCCATCTAC”: 1.11.
The same measure for “GATGATTGTTCTCCCAGCTGATGAATTGAACAATTCGAGTAAACAAATTTTCCTAATCTTTCTGTTCAAGCGCCATCTAC”: 0.41; for “GATGATTGTTCTCCCAGCTGATGAATTGCCAATATCGAGTAAACAAATTTTCCTAATCTTTCTGTTCAAGCGCCATCTAC”: 0.746.
The same measure for “GATGATTGTTCTCCCAGCTGATGAATTGGTGTGGTCGAGTAAACAAATTTTCCTAATCTTTCTGTTCAAGCGCCATCTAC”: 1.32; for “GATGATTGTTCTCCCAGCTGATGAATTTTAAAGCTCGAGTAAACAAATTTTCCTAATCTTTCTGTTCAAGCGCCATCTAC”: 0.245; for “GATGATTGTTCTCCCAGCTGATGAATTACATGTTTCGAGTAAACAAATTTTCCTAATCTTTCTGTTCAAGCGCCATCTAC”: 0.983.
Regarding “GATGATTGTTCTCCCAGCTGATGAATTAAGTGTCTCGAGTAAACAAATTTTCCTAATCTTTCTGTTCAAGCGCCATCTAC”, the binding signal (RPM ratio (pull-down/input)) turned out to be 1.55.
The same measure for “GATGATTGTTCTCCCAGCTGATGAATTGATGAGATCGAGTAAACAAATTTTCCTAATCTTTCTGTTCAAGCGCCATCTAC”: 0.309; for “GATGATTGTTCTCCCAGCTGATGAATTGCGAGCGTCGAGTAAACAAATTTTCCTAATCTTTCTGTTCAAGCGCCATCTAC”: 0.763; for “GATGATTGTTCTCCCAGCTGATGAATTCGGGGTGTCGAGTAAACAAATTTTCCTAATCTTTCTGTTCAAGCGCCATCTAC”: 0.934.
The same measure for “GATGATTGTTCTCCCAGCTGATGAATTCTTTTAATCGAGTAAACAAATTTTCCTAATCTTTCTGTTCAAGCGCCATCTAC”: 0.213; for “GATGATTGTTCTCCCAGCTGATGAATTACATTCGTCGAGTAAACAAATTTTCCTAATCTTTCTGTTCAAGCGCCATCTAC”: 0.566.
With “GATGATTGTTCTCCCAGCTGATGAATTTAATGGGTCGAGTAAACAAATTTTCCTAATCTTTCTGTTCAAGCGCCATCTAC”, the binding signal (RPM ratio (pull-down/input)) was 1.3.
With “GATGATTGTTCTCCCAGCTGATGAATTCGCTACCTCGAGTAAACAAATTTTCCTAATCTTTCTGTTCAAGCGCCATCTAC” the figure was 0.472; with “GATGATTGTTCTCCCAGCTGATGAATTCTACAATTCGAGTAAACAAATTTTCCTAATCTTTCTGTTCAAGCGCCATCTAC”, 0.354.
With “GATGATTGTTCTCCCAGCTGATGAATTAGATGGCTCGAGTAAACAAATTTTCCTAATCTTTCTGTTCAAGCGCCATCTAC”, the binding signal (RPM ratio (pull-down/input)) is 0.686.
Regarding “GATGATTGTTCTCCCAGCTGATGAATTATGGAGCTCGAGTAAACAAATTTTCCTAATCTTTCTGTTCAAGCGCCATCTAC”, the binding signal (RPM ratio (pull-down/input)) amounted to 0.305.
The same measure for “GATGATTGTTCTCCCAGCTGATGAATTTATCCCATCGAGTAAACAAATTTTCCTAATCTTTCTGTTCAAGCGCCATCTAC”: 0.695.
The same measure for “GATGATTGTTCTCCCAGCTGATGAATTTACTCACTCGAGTAAACAAATTTTCCTAATCTTTCTGTTCAAGCGCCATCTAC”: 0.62; for “GATGATTGTTCTCCCAGCTGATGAATTAACTCCGTCGAGTAAACAAATTTTCCTAATCTTTCTGTTCAAGCGCCATCTAC”: 0.236; for “GATGATTGTTCTCCCAGCTGATGAATTTTTGCCGTCGAGTAAACAAATTTTCCTAATCTTTCTGTTCAAGCGCCATCTAC”: 0.751.
“GATGATTGTTCTCCCAGCTGATGAATTAAAAGAATCGAGTAAACAAATTTTCCTAATCTTTCTGTTCAAGCGCCATCTAC”: the binding signal (RPM ratio (pull-down/input)) came to 0.196.
The same measure for “GATGATTGTTCTCCCAGCTGATGAATTTGGGGAATCGAGTAAACAAATTTTCCTAATCTTTCTGTTCAAGCGCCATCTAC”: 0.32; for “GATGATTGTTCTCCCAGCTGATGAATTCAATGTATCGAGTAAACAAATTTTCCTAATCTTTCTGTTCAAGCGCCATCTAC”: 1.5.
